# According to the supplement of paper PMC7826260:
# This is one part of the list. Each Rep nickase domain was tested in vitro on the same pool of single strands for 1 h at 37 °C with 3 µM enzyme; only the middle of the 90-letter strands is printed. Numbers give uncut DNA relative to the enzyme-free pool, as log2; uncut sequences lie near 0, cut ones below; no hit call is given. Shares of all reads are compared; values above 0 arise when much of the pool is cut.
# System: T1, Rep nickase domain of tomato golden mosaic virus
# T1 sequence (Rep 1-124, printed without the tag): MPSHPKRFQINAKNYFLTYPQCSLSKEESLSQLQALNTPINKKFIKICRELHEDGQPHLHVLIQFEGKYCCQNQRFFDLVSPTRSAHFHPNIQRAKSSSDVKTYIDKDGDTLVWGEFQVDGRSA
# Assay: uncleaved DNA left, log2 of reads against the no-enzyme library (log2 ratio); higher = less cleavage (more negative = more Rep cleavage of the k-mer); sequences stand for … in CTCGTCCG…ACCGGAGA
# Description: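 A pool of 90-nt single-stranded DNAs with seven random bases just before the constant AC of the nick site (name = the seven bases) was cut by 3 µM recombinant His6-SUMO-tagged Rep nickase domain (300 nM DNA, 50 mM HEPES pH 8.0, 50 mM NaCl, 1 mM MnCl2, 1 h, 37 °C, three replicates). Uncut DNA was amplified and sequenced.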
row,Sequence,uncleaved DNA left (log2)
1,CTTTGAC,-0.0929
2,GGAAATA,0.00339
3,TTGGAGG,0.128
4,TCAAGGC,-0.0249
5,GCACCAT,-0.124
6,CAAGAGC,0.156
7,CAAGTCC,-0.0647
8,GTACTCT,0.0207
9,AATTCCA,-0.124
10,CCGTAGT,-0.469
11,TTTAAAG,-0.0293
12,CATCTAA,0.112
13,ACGCCCG,0.114
14,GTTAGGT,0.074
15,GTCCCCG,0.111
16,CCCAGGT,0.0468
17,GTTTGCT,-0.0313
18,TGTGCTC,-0.125
19,CAAAATC,0.0508
20,TCGGTCT,-0.0366

row,Sequence,uncleaved DNA left (log2)
1,GCGAATT,-0.0731
2,CAACCTT,-0.368
3,TGACCTA,-0.0618
4,CGATGAG,-0.0566
5,GCAGGCT,-0.124
6,AGGCGAT,0.11
7,CATGCTG,-0.0167
8,AGAATAG,-0.000614
9,GTTGCCC,-0.0404
10,GGGCGGC,0.0245
11,TTCGTAT,0.0161
12,AGGTTAC,-0.0752
13,ACGAGGA,-0.0123
14,GCCTCGT,-0.0747
15,GTCCTTA,0.129
16,TTAAGCC,-0.661
17,AGCGCAC,-0.137
18,CCACGTC,-0.113
19,AATGGTA,0.0993
20,ACCCTGA,-0.148
